From the supplement of paper PMC11417369
± gives the standard deviation of the averaged measurements. The list shows a part of the results.

Test system: PfAP2-LT AP2 domain (GST-tagged)
Assay: gcPBM binding intensity (ln(normalized median fluorescence intensity)); higher = stronger DNA binding
Method in brief: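 Binding of GST-tagged P. falciparum DNA-binding domains, expressed in E. coli and used at about 25 μg on average, was carried out for 1 h in 1× PBS containing 1% milk, 0.2 mg/ml BSA, 0.5% salmon testes DNA and 0.03% Triton X-100. The target was an Agilent 4 × 180k array of primer-extended double-stranded 36-bp intergenic genomic probes plus negative controls, read with Alexa488 anti-GST antibody at 488 nm. Binding intensity is the highest Masliner-normalised natural-log median intensity across replicate spots of either probe orientation.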

Sequence | gcPBM binding intensity (ln)
CATATATATAAATACACACACACACCCCTTATAATT [CACACA_site4064] | 10.2 ± 0.15
AAAAGAATTTGAAGTCGTACAATATCTATTATATGA [XGTACX_site8275] | 8.74 ± 0.39
TCAATAGTTACTAGTACATGCAAAAATAAACCTATA [TGCATGCA_site85] | 8.92 ± 0.38
CAAATATATATGTTCACACATATAATTATTGTGAAA [CACACA_site4190] | 8.69 ± 0.4
TTGCCATTAATTTATACACACACATTTTAATTTTTT [CACACA_site8150] | 9.16 ± 0.39
TTGTCATTTATAAAATGTACGTGTGTATATATTTAA [XGTACX_site5000] | 8.8 ± 0.38
AACATTTTTAAATATATAAAAATATATATATATATA [XGTACX_negctrl_site551] | 8.89 ± 0.18
TTATATTTATGATACACACACGTATATTCACATACA [CACACA_site6354] | 9.29 ± 0.3
TTTTAAAGCATATCATATAAAGAACATGACATAGGA [CACACA_negctrl_site630] | 8.59 ± 0.4
GTATGTTTAATTTTAGTGCAATTATAAATATTTTAA [GTGCAC_site9531] | 8.35 ± 0.35
AAGAAAATAAAATAAAAAAAAAAATAAAAAAAATAA [TGCATGCA_negctrl_site516] | 8.37 ± 0.74
AAATTGTCTGCATATAGTACATAAATATATTAATAT [XGTACX_site4557] | 8.68 ± 0.45
ATATATATATATATAGTGCATAATGTTTTAATAGAT | 9.29 ± 0.16
TCTTTATATATATATATATGTGTGAATGTTAAGTAT [XGTACX_negctrl_site135] | 9.19 ± 0.3
ATTTTTTTTTTTTCCTTACACACATATTTCATTTTA [CACACA_site748] | 9.29 ± 0.61
TACATTTTTATTTTTACACACATATATATATATATA [CACACA_site1021] | 9.24 ± 0.13
CTATTAAAAAAATTATGTACACAACGTCTCTATATA [XGTACX_site4813] | 8.71 ± 0.43
TATTATTTTATGAGACATAAAAAAAAAAAAAAAAAA [CACACA_negctrl_site1534] | 8.04 ± 0.46
TATAATATATTTATATGTACTTATTTATTTATATAT [XGTACX_site6519] | 8.66 ± 0.47
GAGTTTATTCTTTTTATACACACCTTATTTGATTAA [CACACA_site735] | 8.92 ± 0.45
AAGTATTATTATAAGACACACATGTATATAAGTATA [CACACA_site1479] | 9.14 ± 0.53
TTAAGTATTTTACGTACACACTTATAAATGTACAGG [CACACA_site6012] | 8.73 ± 0.4

Sequence | gcPBM binding intensity (ln)
TAATCCATAAGAAGCACACACATATAAATATATTTT [CACACA_site6774] | 9.19 ± 0.37
TTTAAATATTTTAACACACTCATATTTAGGTTACAA [CACACA_site5685] | 8.62 ± 0.52
TTTACATATTTATATACACACTTTTGCGTGTCTGGT [CACACA_site4750] | 9.33 ± 0.68
TCCATATATATTATGTGTACATATTATATATATAAA [XGTACX_site7525] | 8.53 ± 0.34
AGTAAAAGAAAGCACACACACATGTATATATGTATG [CACACA_site3858] | 9.75 ± 0.41
CAATATAAAAAACACACGCACACAAAAAAAAAAAAA [CACACA_site3521] | 9.46 ± 0.42
GTAATATTATATAGTTGTACTTTTTTTTTATTATAT [XGTACX_site483] | 8.79 ± 0.48
ATATATAAAATATATTGTACATTAACATATATATTT [XGTACX_site2055] | 8.57 ± 0.39
AAACTTGACGGACACACACACACATATATAAAAAAA [CACACA_site4577] | 9.94 ± 0.38
ATATATAAATAAATAGTGCATTTTAATATTTAACGT | 8.85 ± 0.41
TGTTATATTTGTGCGTGTACACATTTGAAAAAATAT [XGTACX_site3796] | 8.74 ± 0.4
TTTCTTTATTTTTTTTTTTTTTTTTTTCCTTTTTTT [TGCATGCA_negctrl_site231] | 8.4 ± 0.56
TGTGCACGCATATACACACACAAATACAATGATAAA [CACACA_site6656] | 9.44 ± 0.36
AACGGGGCCAAGAAATATAAATAATCAAAACAAAAA [XGTACX_negctrl_site320] | 8.71 ± 0.76
AATATCATCAAACGCACACATACATAAATATATTAT [CACACA_site2174] | 9.44 ± 0.44
GTTCTTTCAAGTTATACACACCAAAAAAAAAAAAAA [CACACA_site7435] | 8.64 ± 0.35
TAGTACACACAAAATACATGCGGGGTTTAATATTTA [TGCATGCA_site576] | 9.12 ± 0.47
AATTCTTTCATATATTGTACGTATTCCCATAAAATA [XGTACX_site5923] | 8.71 ± 0.42
AGTGTGTGTGCGTATAGTACATATACATATATACAC [XGTACX_site6882] | 9.97 ± 0.47
AAATGAATAAAATTTATTTATAAAAGAAAAATCACA [GTGCAC_negctrl_site225] | 8.35 ± 0.6
ATAATACAAAATACATGTACAAATATTTTTCATATT [XGTACX_site1721] | 8.86 ± 0.46
TATAAATAATTATATTGTACTCTTTATATTTTTCTT [XGTACX_site5335] | 8.61 ± 0.7
